# Measured values published in PubChem BioAssay AID1508623 (National Center for Advancing Translational Sciences (NCATS), 2021).
# In all, about 48,000 compounds went through this assay and about 450 (0.94%) were called active. The shares of active, inactive and inconclusive entries below differ from those in the screen. Calls come from the whole dose curve; as a rule, active = well fitted inhibition curve with a large enough effect; inconclusive = small, poorly fitted or top-dose-only effect; inactive = no such curve, though single readings can be large or run the other way. A potency beside an inconclusive call is a rough fit, not a confirmed value.
# Test: Primary qHTS for Identification of Small Molecule Inhibitors of Huntingtin Promoter Activity; note: nearly all actives have a fitted effect of over 50% in size
# Conditions: HEK293 HTT promoter firefly luciferase reporter (activity 0% = vehicle and -100% = no light), 24 h; series mostly up to 57.5 µM
# How it was run: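 Firefly luciferase readout (Dual-Glo, 10 min RT) after 24 h, 37 °C compound exposure (final up to 57.5 uM) of HEK293 reporter cells cultured 24 h beforehand; PTC124 at 50 uM final as control inhibitor; activity scaled vehicle 0%, zero RLU -100%.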
# Potency is the fitted concentration of half-maximal effect; tags give direction and shape of the fitted curve.
row,Compound,Potency
1,O=C(NCCc1ccc(Cl)cc1)c1ccc2c(c1)N(Cc1ccc(F)cc1)C(=O)CS2,"inconclusive: 31.6 µM [inhibitor, partial curve, poor fit]"
2,CN[C@@H](C)[C@H]1[C@H](O)C[C@@]2(C)[C@@H]3CC[C@H]4C(C)(C)[C@@H](NC)CC[C@@]45C[C@@]35CC[C@]12C,inactive
3,CCCCN(Cc1cc2ccccc2[nH]c1=O)C(=O)c1cccc(Cl)c1,"inconclusive: 22.4 µM [inhibitor, partial curve, poor fit]"
4,O=c1[nH]c(=O)n([C@H]2CCCO2)cc1F,inactive
5,Cc1cc(OCCn2c(CCNC(=O)C3CCCCC3)nc3ccccc32)ccc1Cl,"inconclusive: 12.6 µM [inhibitor, partial curve, poor fit]"
6,COc1ccc(C)cc1NS(=O)(=O)c1ccc2c3c(cccc13)C(=O)N2,"inconclusive: 17.8 µM [inhibitor, partial curve, poor fit]"
7,CCCc1cc(N2CCN(c3cccc(C)c3C)CC2)n2cnnc2n1,"inconclusive: 20 µM [inhibitor, partial curve, poor fit]"
8,Cc1cc(C)c(NC(=O)CSc2nccn2-c2cccc(Cl)c2)c(C)c1,"inconclusive: 39.8 µM [inhibitor, single point]"
9,COc1cccc(-n2c(-c3ccccc3F)nc3c(cnn3-c3ccc(C)cc3)c2=O)c1,"inconclusive: 39.8 µM [inhibitor, partial curve, poor fit]"
10,COc1ccc(NC(=O)c2sc3nc4c(cc3c2N)CCCCCC4)cc1,"inconclusive: 39.8 µM [inhibitor, single point]"
11,Cc1ccccc1NC(=O)CSc1nc(-c2ccccc2)cn1-c1ccccc1F,"inconclusive: 39.8 µM [inhibitor, single point]"
12,CCOc1ccc(CNC(=O)C2CCN(C(=O)N3CC(CC)Oc4ccccc43)CC2)cc1 (stereo unspecified),"inconclusive: 31.6 µM [inhibitor, single point]"
13,CC(C)(C)c1ccc(C(=O)NC2(C(F)(F)F)NC(=O)N(CCc3ccccc3)C2=O)cc1 (stereo unspecified),"inconclusive: 31.6 µM [inhibitor, single point]"
14,CCOc1ccc(CNC(=O)c2ccccc2NC(=O)c2nsc3ccccc23)cc1,inactive
15,CCOc1ccccc1NS(=O)(=O)c1ccc2[nH]c3c(c2c1)CCCCC3,"inconclusive: 39.8 µM [inhibitor, single point]"
16,C[C@@H]1CC(=O)NN=C1c1ccc(NN=C(C#N)C#N)cc1,"inconclusive: 9.68 µM [inhibitor, partial curve]"
